# Test results as given in the supplement of paper PMC11417369.
# This is one part of the list.
# System: PfSIP2 AP2 domain 1 (GST-tagged)
# Assay: gcPBM binding intensity (ln(normalized median fluorescence intensity)); higher = stronger DNA binding
# Outline: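 Using an Agilent 4 × 180k array, primer-extended double-stranded 36-bp intergenic genomic probes and negative controls were exposed for 1 h to GST-fused P. falciparum DNA-binding domains expressed in E. coli. Binding was carried out in 1× PBS with 1% milk, 0.2 mg/ml BSA, 0.5% salmon testes DNA and 0.03% Triton X-100, and protein was detected with Alexa488 anti-GST antibody and a 488 nm scan. Binding intensity is the highest Masliner-normalised natural-log median intensity across replicate spots of either probe orientation.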
row,Sequence,gcPBM binding intensity (ln)
1,CAATATTATATTACTTGTACACATATGTAGTTTCGA [XGTACX_site8945],7
2,CAAAATATACACACGTGTACACAAATATTTACAAAA [XGTACX_site2257],7.29
3,TTATTAAAAAAAATATGTACTCACAATATAATATAT [XGTACX_site3738],7.24
4,GAAATTTTTAAAAAGGTGCTTTTAACAAAAATTATT [GTGCAC_site9687],7.81
5,TTTTTTTTTTCTTGTTGTACTTTTAATAATTCATAT [XGTACX_site4704],7.01
6,TATATATATATAACATGTACATAAAATACATTTATA [XGTACX_site7370],8.64
7,ACCATCCTTAATACTTATTTTTTCACAATTAAGTAA [GTGCAC_negctrl_site269],7.33
8,TTAGCAACTATTACTACACACATTTGTATATAATTT [CACACA_site1591],6.83
9,AAAAAAAAAAAAAGATGTACATATATTTTTATTATA [XGTACX_site654],7.28
10,AACCATTCTTCTAATTGTACATTGAAAAATCATGAT [XGTACX_site3854],7.07
11,AAGGATATAAAAAAACGTACGTACGATAATATAATT [XGTACX_site1292],7.04
12,AGTATTTTAATTTCAGTGCATTTTATTCTATAATTA,8.53
13,AAAAAAAAAAAAAATGCATGTGCGTAAATAATAATA [TGCATGCA_site793],7.21
14,AAGTTTTCTTACAGATGTACTTTTTAAAAATAAACT [XGTACX_site6632],7.05
15,ATATATATCTATATTTGTACATATTACATTCAAGTT [XGTACX_site1749],7.31
16,TTTAGGAAAGGCGGCACACATTTATATATTTATTTA [CACACA_site5931],6.81
17,TTTTATCGATATATCTGTACATATTACTTATAATAA [XGTACX_site57],7.01
18,TTAATTTATTTATGCACACATATATAATTACACATA [CACACA_site4544],7.61
19,TGCTATAATTTATATACACACAAATATATACTCATA [CACACA_site6111],6.98
20,TATAACTATTTATAATGTACTCATGTATAATTATAT [XGTACX_site7913],6.98
21,TTTATATATTATATAAATATTATTATACTTTAAATA [TGCATGCA_negctrl_site236],6.79
22,ATGCTTTTGTCATGTGCACACACGTATATATTATAT [CACACA_site4163],9.24
23,ACATGTATTTATAAGAGTACATATGTGTGCATGTTT [XGTACX_site7946],7.67

row,Sequence,gcPBM binding intensity (ln)
1,TTTATAATATACATAACACACAATTATTATTTCTTA [CACACA_site3624],6.92
2,AACTTTTAGAAGAACACACACATATAGATTATGACC [CACACA_site6256],6.97
3,TTTTTTTCCTTATCTATATATAATCAAATTTTCTAC [CACACA_negctrl_site867],7.1
4,TTATAACAAATATAGAGTACTAAAATTTTACGTTAT [XGTACX_site1410],6.98
5,TCGAACATTAACATAACACACATATATATATATATA [CACACA_site2900],9.65
6,AAGGTTATTTATATATGTACTTAATATATATATATG [XGTACX_site886],7.15
7,TATTTATACATACGTACACACAAATATTAAAATATA [CACACA_site7004],7.41
8,ATTTTTTTTTTTTGTACATACCACATATACAAAACA [CACACA_negctrl_site1240],7.29
9,TTTTTTTTTTTCTCCATACACACTTGATAAAACTTT [CACACA_site615],6.85
10,TAATTGATTCTTCACCGTACTCACACATATATATAT [XGTACX_site6530],8.93
11,ATATATTATAAATGTAGTACCGTTACATAGTCATAG [XGTACX_site390],6.99
12,CACACCACCAACAAAAGTACATACATATATATATAT [XGTACX_site5781],8.99
13,TATATATTGCCCTTCACACACACACCCATATATATA [CACACA_site2493],7.44
14,ACTACGAGTCGTAGAGTGCAGTCTGGAGAAAAGTAC [GTGCAC_site9769],9.01
15,ATCAAGCACGAACACACACACACACGCACGCCCACA [CACACA_site6308],7.31
16,GGTATTTATGGACGCGTGCACACACATATGAACAAA,9.35
17,TTTTGATTTTTTTATTGTACCCATAAACATATAATT [XGTACX_site5202],7.39
18,TATTTTTGAAGTTGCACACACAAAAATAAAAAGTAT [CACACA_site418],7.84
19,TACAAACAATTAAACAAACACACATATACATGTATA [CACACA_site2061],6.92
20,ATATTTACTCACGTCTTGCACTGAGCAAGCATTATA,7.12
21,TCATGTTTTTAATATTGTACTCTCATTTTATATATC [XGTACX_site8412],6.97
22,AGCTATTAATTTATTACATGCAAGATTAAAAGACTA [TGCATGCA_site281],6.72
23,AAAAAAAAAAAAAAATCACACATTGGTTAAATATTA [CACACA_site5344],7.11

row,Sequence,gcPBM binding intensity (ln)
1,CTATCAAATAATAGCAAACACACAAAAAATAAAAAA [CACACA_site4147],6.91
2,ATTCATACATGCACACGTACATATTTAAATATAAAA [XGTACX_site8388],8.17
3,ATTTTTTATGAAAACATAAAAAAATGAGATAACCAT [CACACA_negctrl_site894],7.12
4,AAAAAAAAAAGACACACACACACACGGACACATACA [CACACA_site7363],7.1
5,GACATTAATTATTTGACACACGACTGGGTGGTGATT [CACACA_site306],6.63
6,TTTTTTTTTTATACATGTACTTAAAAGTAGCACCTT [XGTACX_site1855],9.35
7,TGATTCAATTTATGCACACTAAAAATTAATTATATT [CACACA_site271],8.42
8,ATTATATATACAACAAGTACAAAAGAAAAATATTAT [XGTACX_site2914],7.14
9,TTTGTAAAAGGTCATACACACATATTCAAAAGAAGT [CACACA_site2947],7.26
10,TATAAATACATCCTATACTTCTCTTTTACAGTTTTA [CACACA_negctrl_site1283],6.8
11,ATATATATATATAATTGTACATTTTTAACCTTAACA [XGTACX_site7910],9.36
12,TTTTATGTTTTTTTTATAAATATTAAAATTCTATAT [CACACA_negctrl_site1477],6.87
13,ATATTGTTATATGTTTGTACATATTTTTTATATTTT [XGTACX_site6834],6.92
14,AATGTTAAAAATGAAAGTACATGGAATTTATTATTT [XGTACX_site4095],6.95
15,AAAAAAAAAAAATACACACACACATATAAATATGTA [CACACA_site6900],7.02
16,GTTTATATATGCTTATAATTTTCAATTGTTTTACAA [TGCATGCA_negctrl_site384],6.89
17,TGTGTGGATATATGTATGCACTACCCTTTGGGTCAT [GTGCAC_site9506],8.47
18,AAATATTAAATGGAAAACAAATATATATATCTTAAT [XGTACX_negctrl_site383],6.7
19,ATATATTGAACCTATGCATGTAAAATATATGTAATA [TGCATGCA_site644],6.91
20,ATATATATATATAGGAGTACATGAAATACTTAAAAA [XGTACX_site8851],8.99
21,AAAAAAGAAATAATCAAATAAATAAAAAAGATGAAT [XGTACX_negctrl_site607],6.95
22,GTGTGAAGATATAAATGCATTTTTTTATACATTTTC [CACACA_negctrl_site117],6.96
23,TGTAAGTATTCTTGAGGTACACATATAAATATAGTA [XGTACX_site3207],6.99

row,Sequence,gcPBM binding intensity (ln)
1,AATATTATATAATAAAGTACATATATATTCATATTT [XGTACX_site7204],7.09
2,TATTAATACAGACACACACACACACTAATTAAAATA [CACACA_site7967],7.15
3,ATTTACCCTTGCCATGCACACTTTTTTATAGAAAAT [CACACA_site5857],7.97
4,AATATATAATTAATTGCACACCTTGTCACGCCAAAA [CACACA_site1174],7.2
5,GAATGAATACGTTTTACACACTTGAATATAATTTCA [CACACA_site989],6.87
6,ATATATAAATTTAATACACACCCAAAAAAAAAAAAA [CACACA_site7719],7.03
7,TAAATATATAAACACACACACATTAATACAGATATT [CACACA_site5851],6.9
8,AAAATTATAAAATGGGCACACATGAAGATTGTAGTA [CACACA_site2226],6.85
9,TTATTTATTTTTTCATGTACTTAAATATATTAATGT [XGTACX_site5804],7.19
10,ATCTATATTTTTATAACACACAATGATGTACATTAC [CACACA_site6633],7.24
11,TGAAAATATTTTATATGTACATATATTATCAATACA [XGTACX_site92],7.08
12,TAGAATAATCTATAAACACACAAACCCAACAAAAGA [CACACA_site6132],7.31
13,GGTAATAAACAATGAAGTACGTAAAGGTAAAATATT [XGTACX_site2647],7.46
14,TTATTAGGTATATATGCACACAATACCCAAAACAAC [CACACA_site4221],9.24
15,TAATAATCAAACTATACACACATAAATAGATATATA [CACACA_site6220],6.95
16,ATTTAATTTTCATGATGTACTATAGTTTAATGCACA [XGTACX_site1624],9.33
17,TGTAAATATAAATGTAATAAATATGTAAAAATAAAT [XGTACX_negctrl_site171],7.12
18,TATTTTCAAAAATATACACACACATAAATATATGTA [CACACA_site8160],6.92
19,TTATATGTATTTCTTTGTACACATTTTTATATATAT [XGTACX_site1462],7.38
20,TATCATTTTTTTAAAACACACATAATAATATAAATA [CACACA_site2845],7.1
